For 172 sequences, binding signal results are on record in paper PMC10668032.

The other results are listed elsewhere or left out. At the low end of the ranking, values are background and their order means little.

In this experiment the target is SIX1-Q177R homeodomain (UniProt Q15475). In words: universal protein binding microarray. The following applies: Universal all-10-mer PBM (8x60K, AMADID 030236), 300 nM GST-tagged protein, Alexa Fluor 488 anti-GST; buffer, salt, pH and temperature not stated; high values mean tight binding; most listed sequences are background and not binding sites; double strand, one strand shown.
As to GGACGACC, the binding signal amounted to 0.0234 E-score.
On to AATTGGAT, for which the binding signal turned out to be 0.00487 E-score.
Regarding AAACCTTC, the binding signal is 0.00346 E-score.
Next, AGGAGAAC: 0.0487 E-score; CTTATTAA: -0.0906 E-score; AAACTTTA: -0.124 E-score.
Next, CCCTGCGA: -0.00361 E-score; CTAATAAC: 0.0482 E-score.
Take GATGGGCC: the binding signal was -0.266 E-score.
In the case of GGACGGAC it was -0.0176 E-score; in that of AAGATATT, 0.00664 E-score; in that of ACAAGTTA, -0.0966 E-score.
Next, TATCATCA: -0.0496 E-score; CAGTACTG: 0.0989 E-score; AATTGCAT: -0.269 E-score.
In the case of CTGCTAAC it was -0.0377 E-score; in that of CTAGTCAA, -0.163 E-score; in that of CCCATTAA, 0.0458 E-score.
For AAAATAGT, the binding signal is -0.104 E-score.
In the case of CGTAGCAC it was 0.172 E-score.
Regarding AGTCTGGG, the binding signal is -0.148 E-score.
In the case of ACAGTTCA it was -0.00547 E-score; in that of CGCAAAAC, 0.0653 E-score; in that of GATTGTAC, -0.206 E-score.
As for ACGGTAGA, the binding signal was found to be 0.103 E-score.
In the case of GGGACGAC it was 0.0211 E-score; in that of CGTGGACA, 0.0767 E-score.
Take CATAATAA: the binding signal was 0.0227 E-score.
Next, GCAAGACA: 0.0505 E-score; ACCTACTG: 0.105 E-score; AACAATAT: -0.122 E-score.
With AGGACCGA, the binding signal was -0.197 E-score.
Next, GTGCACGA: 0.108 E-score.
Next, CGATGGGC: -0.223 E-score; GACCTAAA: -0.23 E-score.
Next, AAAGTAGA: -0.203 E-score.
For the sequence CACGTACG, the binding signal was found to be 0.167 E-score.
Next, AACCACCC: 0.0693 E-score.
As for GTCTTGAA, the binding signal is -0.135 E-score.
GGCTCTAA: the binding signal was -0.0892 E-score.
On to GACGGCAA, for which the binding signal was -0.0789 E-score.
Take ACCCTGAG: the binding signal came out at 0.245 E-score.
For ACCTAGGG, the binding signal stood at 0.0206 E-score.
In the case of CCATGTTC it was -0.248 E-score.
Next, AACTGTTG: -0.0919 E-score.
In the case of CTTAAATC it was -0.107 E-score.
For the sequence CTACCTTC, the binding signal is -0.00206 E-score.
Next, GCTATCAA: -0.116 E-score; ATACAGAT: -0.184 E-score; GGAATATA: -0.229 E-score.
Next, CTTCAACA: 0.291 E-score; CTAGATGC: 0.0939 E-score.
As for AGGTGCAT, the binding signal is 0.132 E-score.
For the sequence AGCCCTAT, the binding signal is -0.128 E-score.
In the case of AATCTAAT it was -0.224 E-score; in that of ACACACTA, 0.267 E-score.
Next, AACGTAGC: -0.188 E-score.
Turning to CTCGCTTC, the binding signal was -0.0499 E-score.
On to ACAAAGAT, for which the binding signal was -0.2 E-score.
In the case of CTCGGTAA it was -0.00451 E-score; in that of AAAACAGT, -0.147 E-score.
Take GCGATACA: the binding signal was 0.0566 E-score.
Next, AACCCAGG: 0.116 E-score.
On to ACAATACT, for which the binding signal is -0.0405 E-score.
In the case of CGTGAATC it was -0.0854 E-score; in that of ATAATAGC, -0.259 E-score.
TACTGTCA: the binding signal was -0.0491 E-score.
Next, CCCCTGAG: 0.16 E-score.
On to ATACTACA, for which the binding signal stood at 0.257 E-score.
Regarding CCGGACTC, the binding signal was -0.00484 E-score.
On to AGCCTTCG, for which the binding signal is -0.131 E-score.
Regarding AAGACGGA, the binding signal was -0.0267 E-score.
Next, GCCAGACA: -0.0215 E-score.
Next, AGCAGCTC: -0.218 E-score.
Next, AATGCTCA: -0.262 E-score.
As for CGGGCAAG, the binding signal was -0.143 E-score.
For the sequence CACGCGCC, the binding signal is 0.0899 E-score.
GACGAATC: the binding signal was -0.0478 E-score.
In the case of TTACGTAA it was -0.132 E-score; in that of GTGTGGAA, 0.193 E-score.
In the case of ACATACGG, the binding signal was -0.105 E-score.
With GGCTCTCA, the binding signal was -0.0529 E-score.
For the sequence CTGTCTCA, the binding signal is -0.248 E-score.
Next, CTTTGAAC: -0.0558 E-score.
Take GCCTGAAA: the binding signal is -0.171 E-score.
In the case of AATGCAGG it was 0.09 E-score; in that of CCTTGTTA, 0.104 E-score.
In the case of AACGTGTC it was 0.348 E-score.
In the case of GCAACAAC it was -0.138 E-score; in that of CATAGCTA, -0.187 E-score; in that of GACGGAGC, -0.16 E-score.
Consider ATAAGGAG, for which the binding signal is -0.0209 E-score.
In the case of GGCATCAA it was -0.0214 E-score; in that of ACCCTGCA, 0.126 E-score.
In the case of AGATGCCT it was -0.0963 E-score.
In the case of CCTAACCG, the binding signal was -0.0833 E-score.
Next, GGTCACTA: 0.0841 E-score; ACGAAGAG: 0.000745 E-score; AGTGCCAG: 0.0886 E-score.
Next, TCTCAAAA: -0.0633 E-score; AGGTCATG: -0.21 E-score; AAACCCTG: 0.0476 E-score.
Next, CAGTCGGA: -0.128 E-score.
Regarding TCTTTACA, the binding signal came out at 0.0412 E-score.
In the case of GATAGAGA it was -0.191 E-score.
Consider ATCAACGC, for which the binding signal is -0.0859 E-score.
In the case of GATAAAGC it was -0.327 E-score.
Take ACCACCAA: the binding signal amounted to 0.0115 E-score.
For the sequence ATATTCGC, the binding signal was -0.103 E-score.
For the sequence GCCACCGC, the binding signal is -0.181 E-score.
Consider CCTTTCAA, for which the binding signal is -0.0648 E-score.
Next, ACTTCCAT: -0.129 E-score; TATGAGAA: -0.118 E-score; CCTCTGTC: -0.0993 E-score.
On to ATAGCAAG, for which the binding signal was -0.111 E-score.
In the case of CTATGCGA, the binding signal amounted to 0.0083 E-score.
In the case of CTCGAATC it was -0.00424 E-score.
For the sequence AGTACGAC, the binding signal was -0.0218 E-score.
On to CTATCCCC, for which the binding signal is 0.104 E-score.
Take ATGTAACC: the binding signal was -0.0301 E-score.
Next, AACTCAAA: -0.0671 E-score; AAAACAAG: -0.126 E-score; TATTGCAA: -0.0155 E-score.
Next, AGTCGTAA: -0.091 E-score; CTTTTAAC: -0.12 E-score; AGGTGCGG: 0.187 E-score.
Consider AAAAATGT, for which the binding signal is -0.314 E-score.
In the case of AGTAAGAT it was -0.121 E-score.
On to TCCTGACA, for which the binding signal was 0.0983 E-score.
With CGAGTGGC, the binding signal is 0.0371 E-score.
With ATGGTACA, the binding signal amounted to 0.18 E-score.
In the case of ACGATCTG it was -0.0758 E-score.
CGAGTCCA: the binding signal amounted to 0.0587 E-score.
Next, AAAAATTG: -0.0634 E-score.
Consider TACACAAA, for which the binding signal turned out to be 0.247 E-score.
CCTCGTTC: the binding signal turned out to be 0.0187 E-score.
With CCGTCAAG, the binding signal was -0.198 E-score.
Regarding ATTGTCTG, the binding signal came out at 0.0124 E-score.
Next, GTCCGCCA: 0.0427 E-score.
In the case of AGGCTCGA it was -0.259 E-score; in that of TAGGGCAA, -0.0796 E-score; in that of ATTGTTTG, -0.234 E-score.
Consider GAGAATGC, for which the binding signal is -0.151 E-score.
Next, GAATCCGC: -0.0437 E-score.
As to GCGAGTCA, the binding signal turned out to be 0.114 E-score.
With GGGTAAAC, the binding signal stood at 0.193 E-score.
On to AAGGTCAC, for which the binding signal was -0.1 E-score.
Next, GTCCATTA: -0.03 E-score; ACGCGAGA: 0.0711 E-score.
With CAGAGACG, the binding signal amounted to 0.0584 E-score.
For the sequence TCTTACCA, the binding signal was -0.0502 E-score.
On to ATTGCAAG, for which the binding signal is -0.203 E-score.
In the case of TGCAAGCA it was -0.26 E-score.
Next, CCATGCAA: -0.0619 E-score; GCCATACA: -0.0965 E-score; CACTGCAG: 0.0411 E-score.
Next, GAAGACGA: 0.0912 E-score; AATTACCC: 0.119 E-score; TGTAATAA: 0.137 E-score.
On to AGGGACTA, for which the binding signal is -0.185 E-score.
Next, CAGAAGGG: 0.157 E-score; AAAATGCA: -0.137 E-score.
With AAGGGACA, the binding signal amounted to 0.267 E-score.
In the case of GTCTAAAA it was -0.121 E-score.
Next, ACATAGGG: 0.012 E-score; ATTGTCAA: -0.00375 E-score; CGCCCATC: -0.0988 E-score.
In the case of AAAGCCAA it was -0.17 E-score.
For the sequence AAATCTTA, the binding signal is -0.0878 E-score.
On to CCTGCGCA, for which the binding signal is -0.0375 E-score.
In the case of AAAGTCGC it was -0.148 E-score; in that of ATGACAAA, -0.063 E-score.
